# Data published in PubChem BioAssay AID504339 (National Center for Advancing Translational Sciences (NCATS), 2011).
# Hit rate of the full screen: of about 390,000 compounds, about 17,000 (4.4%) were called active. Inconclusive results, whose numbers are uncertain, are shown with a selection of clear calls. Calls follow the shape of the dose curve; as a rule, active = well fitted inhibition curve with a large enough effect; inconclusive = small, poorly fitted or top-dose-only effect; inactive = no such curve, though single readings can be large or run the other way. Where the call is inconclusive, the potency comes from a doubtful curve fit.
# Target: Lysine-specific demethylase 4A (Homo sapiens) (UniProt O75164)
# Assay: qHTS Assay for Inhibitors of JMJD2A-Tudor Domain; also: nearly all actives have a fitted effect of over 50% in size
# Conditions: AlphaScreen JMJD2A-Tudor / H3K4me3 peptide binding; activity change, negative = inhibition: at 114 µM (top of the series)
# % is scaled to controls: 0 for no effect and ±100 for the full control effect; potency is read from the fitted curve at half-maximal effect; tags tell the direction and shape of the fitted curve.
# UniProt O75164, sequence (O75164 whole entry, looked up, the tested form may be a part): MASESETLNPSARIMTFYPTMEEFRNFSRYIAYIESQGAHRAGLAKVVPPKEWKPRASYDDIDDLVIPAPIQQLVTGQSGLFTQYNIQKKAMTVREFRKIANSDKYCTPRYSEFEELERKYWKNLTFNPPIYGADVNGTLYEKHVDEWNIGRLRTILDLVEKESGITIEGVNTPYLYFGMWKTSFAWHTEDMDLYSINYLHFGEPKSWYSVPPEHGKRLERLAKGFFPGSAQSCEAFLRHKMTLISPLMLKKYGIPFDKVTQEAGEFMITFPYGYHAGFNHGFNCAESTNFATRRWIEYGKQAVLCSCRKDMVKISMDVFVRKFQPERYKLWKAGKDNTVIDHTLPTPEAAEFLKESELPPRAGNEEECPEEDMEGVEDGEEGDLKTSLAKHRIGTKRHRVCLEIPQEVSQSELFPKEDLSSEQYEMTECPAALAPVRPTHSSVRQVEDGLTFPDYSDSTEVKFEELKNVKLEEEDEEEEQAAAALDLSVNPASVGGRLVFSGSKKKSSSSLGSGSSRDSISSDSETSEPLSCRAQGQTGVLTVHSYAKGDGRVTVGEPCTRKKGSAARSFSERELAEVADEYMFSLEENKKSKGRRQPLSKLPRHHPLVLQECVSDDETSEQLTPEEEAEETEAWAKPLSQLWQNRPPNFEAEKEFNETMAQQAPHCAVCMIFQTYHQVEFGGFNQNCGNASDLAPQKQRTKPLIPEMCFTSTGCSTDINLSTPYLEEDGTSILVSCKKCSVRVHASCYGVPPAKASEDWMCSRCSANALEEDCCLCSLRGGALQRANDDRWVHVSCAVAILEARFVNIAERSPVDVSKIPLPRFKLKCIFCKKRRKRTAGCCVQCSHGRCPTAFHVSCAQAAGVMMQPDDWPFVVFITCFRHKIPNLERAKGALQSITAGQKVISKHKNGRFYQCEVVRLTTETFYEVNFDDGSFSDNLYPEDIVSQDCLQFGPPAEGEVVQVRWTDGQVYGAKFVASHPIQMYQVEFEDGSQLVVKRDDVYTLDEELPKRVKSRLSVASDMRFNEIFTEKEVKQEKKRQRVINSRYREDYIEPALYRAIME
Structure (SMILES),"activity change, negative = inhibition",Potency
CCN(CC)Cc1c(NC(=O)c2ccc(OC)cc2)sc2c1CCCC2,inactive: -17.3%,–
[O-]/C(=C(\C(=S)Nc1cccc2ccccc12)[n+]1ccccc1)c1cccs1,–,active: 79.4 µM
NC(=O)CCCn1c(C(=O)c2cc(Cl)c(N)c(Cl)c2)c2ccc([N+](=O)[O-])cc2[n+]1[O-],–,"inconclusive: 89.1 µM [inhibitor, partial curve]"
CCOc1ccc(CCNC(=O)c2cccc3c2C(=O)N(CCOC)C3)cc1OCC,inactive: -9.15%,–
COc1ccc(S(=O)(=O)N2CCN(CC(=O)Nc3c(C)n[nH]c3C)CC2)cc1OC,–,active: 0.891 µM
CC1=C(C(=O)Nc2ccccc2Cl)C(c2ccc(N(C)C)cc2)NC(=O)N1 (stereo unspecified),–,"inconclusive: 79.4 µM [inhibitor, partial curve]"
CNC(=O)c1nn(C)c(=O)[nH]c1=O,inactive: -2.76%,–
CCCCC[C@@H]1C=C(C(=O)O)[C@H](c2ccc(Cl)c(Cl)c2)N1S(=O)(=O)c1ccc(C)cc1,–,"inconclusive: 79.4 µM [inhibitor, partial curve]"
O=C(CSCCN1C(=O)c2ccccc2C1=O)Nc1ccc2ccccc2c1,–,"inconclusive: 100 µM [inhibitor, single point]"
C=CCc1cccc(C=Nc2cc(Br)ccc2O)c1O,–,"inconclusive: 22.4 µM [inhibitor, full curve]"
COc1ccc(S(=O)(=O)c2c(O)c3ccc(C(=O)NCc4ccccc4)cc3[nH]c2=O)cc1,inactive: -8.79%,–
CCOC(=O)c1cnc2c(ccc3ccccc32)c1Nc1ccc(OCC)cc1,–,"inconclusive: 15.8 µM [inhibitor, full curve, poor fit]"
Cc1nc([N+](=O)[O-])c(SCC(O)CCl)n1Cc1ccc(Cl)cc1 (stereo unspecified),inactive: -20.3% [at 11.4 µM],–
Cc1nc(COc2cccc(Cl)c2)sc1C(=O)/C=C/N(C)C,inactive: -23.5%,–
COc1ccc(OC)c(-c2csc(NC(=O)COC(=O)c3ccc(NC(=O)CC#N)cc3)n2)c1,–,active: 44.7 µM
CS(=O)c1ccc(-n2c(=O)n(Cc3ccccc3)c(=O)c3[nH]cnc32)cc1 (stereo unspecified),–,"inconclusive: 31.6 µM [inhibitor, partial curve]"
Fc1ccc(N/N=C2/CCSc3sccc32)c(F)c1,–,"inconclusive: 70.8 µM [inhibitor, single point]"
CCOc1ccc(Nc2cc(C)nc3nc(Cc4ccc(Cl)cc4)nn23)cc1,inactive: -26.4%,–
Cc1cccc(-c2nc(CS(=O)CC(=O)NC(C)CCc3ccccc3)c(C)o2)c1 (stereo unspecified),–,"inconclusive: 50.1 µM [inhibitor, partial curve, poor fit]"
CCc1cccc(C)c1NC(=O)C1CCN(c2nn3c(=O)cc(C)nc3s2)CC1,–,inactive
COc1cccc(-c2sc3ccc(OC)cc3c2-c2ccc(O)cc2)c1,inactive: -28.2%,–
CC(C)(C)C(=O)CN1C2=NCCN2c2ccccc21,–,"inconclusive: 22.4 µM [inhibitor, single point]"
Cc1cc(C)cc(NC2=C(c3ccccc3)C(=O)c3ccccc32)c1,–,active: 12.6 µM
O=C(CCN1C(=O)/C(=C/c2ccc3c(c2)OCO3)SC1=S)Nc1ccc(C(=O)O)cc1,–,active: 44.7 µM

Structure (SMILES),"activity change, negative = inhibition",Potency
COc1ccc(S(=O)(=O)N2CCN(CC(=O)NCCc3cccs3)CC2)cc1,inactive: -6.71%,–
NS(=O)(=O)c1ccc(CCNc2ncnc3c2c(-c2ccccc2)cn3-c2ccc(F)cc2)cc1,–,"inconclusive: 56.2 µM [inhibitor, partial curve]"
O=C(CCCNS(=O)(=O)c1cccs1)N1CCN(c2cccc(Cl)c2)CC1,inactive: -1.39%,–
O=c1c2ccccc2cnn1Cc1n[nH]c(=S)n1-c1ccc(Cl)cc1,–,active: 22.4 µM
CCOC(=O)c1[nH]c2ccc(OC)cc2c1NC(=O)c1nonc1C,inactive: -1.23%,–
Cc1nnc(NC(=O)c2ccc(S(=O)(=O)N3CC(C)CC(C)C3)cc2)o1 (stereo unspecified),–,"inconclusive: 20 µM [inhibitor, partial curve]"
O=[N+]([O-])c1ccccc1Nc1ccc(O)cc1,–,active: 63.1 µM
Cc1cc(Br)c2nc3c(c(C(=O)O)c2c1)CCCCC3,inactive: -2.44%,–
CCN(Cc1ccccc1)S(=O)(=O)c1ccc(C(=O)N(CCCN(C)C)c2nc3c(F)cccc3s2)cc1,–,"inconclusive: 44.7 µM [inhibitor, full curve]"
O=C(Nc1ccccc1Cl)c1ccc(C(=O)Nc2ccccc2Cl)cc1,–,"inconclusive: 79.4 µM [inhibitor, partial curve]"
Nn1c(SCC(=O)Nc2ccc3c(c2)OCO3)nnc1C(F)(F)F,–,"inconclusive: 31.6 µM [inhibitor, full curve, poor fit]"
CC(C)=CCc1c(O)cc(O)c2c(=O)c3c(CC=C(C)C)c(O)ccc3oc12,–,active: 56.2 µM
O=S(=O)(Cc1ccccc1Cl)c1ncn[nH]1,–,"inconclusive: 39.8 µM [inhibitor, partial curve]"
COc1cccc(-n2cc(C(=O)OCc3ccc(Cl)cc3)c3ccccc3c2=O)c1,inactive: -1.94%,–
Cc1ccc2c(c1)S/C(=C\c1cccc[n+]1C)N2CCO,–,"inconclusive: 11.2 µM [inhibitor, partial curve]"
Cc1cc(N=Nc2ccccc2)cc(C)c1NC(=O)C(F)(F)F,–,"inconclusive: 14.1 µM [inhibitor, full curve]"
Fc1ccc(-[n+]2nc(Nc3ccccc3)sc2-c2cccc(Cl)c2Cl)cc1,–,"inconclusive: 79.4 µM [inhibitor, single point]"
C/C(=N\NS(=O)(=O)c1ccc(C)c([N+](=O)[O-])c1)c1cc2ccccc2o1,–,"inconclusive: 10 µM [inhibitor, full curve]"
Cc1oc2cc3oc(=O)c(CCC(=O)NCCCn4ccnc4)c(C)c3cc2c1C,–,"inconclusive: 79.4 µM [inhibitor, partial curve]"
CCCC[C@@H]1CNC(=S)N1CCc1cccc2ccccc12,–,"inconclusive: 44.7 µM [inhibitor, full curve, poor fit]"
O=c1c(S(=O)(=O)c2cccc(Cl)c2)cn(Cc2ccccc2)c2cc(N3CCCCC3)c(F)cc12,inactive: -24.1%,–
CCN(CC)c1ccc(NC(=O)C2CCCN(S(=O)(=O)c3cccnc3)C2)c(C)c1 (stereo unspecified),–,"inconclusive: 44.7 µM [inhibitor, partial curve]"
COc1ccc(N2CCN(C(c3cccs3)c3nnnn3C3CCCC3)CC2)cc1 (stereo unspecified),–,"inconclusive: 39.8 µM [inhibitor, partial curve]"
Cc1cc(-c2n[nH]c(=S)n2-c2ccc(F)cc2)nn1C,–,active: 25.1 µM

Structure (SMILES),"activity change, negative = inhibition",Potency
CCOC(=O)c1nnc(-c2ccccc2)nc1Oc1ccccc1Cl,–,"inconclusive: 79.4 µM [inhibitor, partial curve]"
CCOC(=O)c1c(CSc2ccccc2)n(C)c2cc(Br)c(OCC(O)CNC(CO)(CO)CO)cc12 (stereo unspecified),–,"inconclusive: 12.6 µM [inhibitor, partial curve]"
CC(=O)N1CCc2cc(S(=O)(=O)N3CC(C)CC(C)C3)ccc21 (stereo unspecified),inactive: -0.752%,–
O=C(N/N=C/c1ccccn1)c1ccc(S(=O)(=O)N2CCCCCC2)cc1,–,"inconclusive: 89.1 µM [inhibitor, single point]"
Cn1cnnc1SCC(=O)Nc1cc(S(=O)(=O)N2CCCCC2)ccc1Cl,inactive: -16.4%,–
COc1cc(/C=C(/C#N)c2nc3ccccc3[nH]2)ccc1OCc1ccc(C(=O)O)o1,–,"inconclusive: 17.8 µM [inhibitor, partial curve, poor fit]"
C=CCn1c(SCC(=O)NCC2CCCO2)nc2scc(-c3ccccc3)c2c1=O (stereo unspecified),inactive: -6.85%,–
c1ccc(-c2cn(-c3ccccc3)c3ncnc(NCCCN4CCOCC4)c23)cc1,inconclusive: -44.2% [inhibitor],–
Nc1ccc(Nc2ccc([N+](=O)[O-])cc2[N+](=O)[O-])cc1,–,"inconclusive: 44.7 µM [inhibitor, single point]"
CN1CCN(c2nc(-c3ccc(C(C)(C)C)cc3)nc3ccccc23)CC1,–,"inconclusive: 56.2 µM [inhibitor, partial curve, poor fit]"
Cc1nc(NC(=S)NC(=O)c2cncc(Br)c2)ccc1Br,–,active: 17.8 µM
COc1ccccc1N1CCN(C2CCN(C(=O)c3cccc(F)c3)CC2)CC1,–,active: 28.2 µM
O=C(C(=O)N1CCN(c2ccccc2F)CC1)c1cn(CC(=O)N2CCOCC2)c2ccccc12,–,"inconclusive: 22.4 µM [inhibitor, full curve]"
O=C(Nc1ccccc1)C1C2/C=C\CCCCC21 (stereo unspecified),–,"inconclusive: 22.4 µM [inhibitor, full curve, poor fit]"
COc1ccc(CC(=O)Nc2nc(-c3ccc(OC)c(OC)c3)cs2)cc1OC,–,"inconclusive: 25.1 µM [inhibitor, partial curve]"
O=C1c2ccccc2-c2c1cccc2C(=O)N1CCN(C(=O)c2ccco2)CC1,inactive: -12%,–
CCC1=Nc2cc(C(=O)NCc3ccco3)ccc2Sc2ccc(Cl)cc21,–,"inconclusive: 35.5 µM [inhibitor, full curve, poor fit]"
c1ccc(CNCc2ccc3c(c2)OCO3)nc1,–,"inconclusive: 17.8 µM [inhibitor, partial curve]"
CCCCc1ccc(/C=C(\C#N)C(N)=S)s1,–,active: 35.5 µM
C=CCn1c(SCC(=O)Nc2ccc3c(c2)CCC3)nc2ccccc2c1=O,inactive: -6.04%,–
O=C(CSc1ccc(-c2ccccn2)nn1)c1ccc([N+](=O)[O-])cc1,–,"inconclusive: 14.1 µM [inhibitor, single point]"
CC(=O)Nc1ccc(S(=O)(=O)Oc2ccc(C(=S)N3CCCCC3)cc2)cc1,–,"inconclusive: 17.8 µM [inhibitor, full curve]"
COc1ccc(C(=O)NCc2n[nH]c(=S)n2-c2ccccc2)cc1OC,–,active: 6.31 µM
